Data published in publication PMC9911399, “Two distinct binding modes provide the RNA-binding protein RbFox with extraordinary sequence specificity”.
Where a chain is given by its changes, count along the chain named. The list shows a part of the results.

B1: UCCGAAU (DNA:RNA)
RNA: GGGAGACCGGAAUUCAGAUUGUCCUCCGAAUUUAAAUCCCGUCGUAGCCACCA
DNA 1: CAATCTGAATTCCGGTCTCCC
DNA 2: TGGTGGCTACGACGGGATT
B2: UAGCUUG (DNA:RNA)
RNA: B1 RNA with C26A, C27G, G28C, A29U, A30U, U31G
DNA 1: CAATCTGAATTCCGGTCTCCC
DNA 2: TGGTGGCTACGACGGGATT
B3: GAAAACG (DNA:RNA)
RNA: B1 RNA with U25G, C26A, C27A, G28A, A30C, U31G
DNA 1: CAATCTGAATTCCGGTCTCCC
DNA 2: TGGTGGCTACGACGGGATT
B4: CUGAUAU (DNA:RNA)
RNA: B1 RNA with U25C, C26U, C27G, G28A, A29U
DNA 1: CAATCTGAATTCCGGTCTCCC
DNA 2: TGGTGGCTACGACGGGATT
B5: CUGCCCA (DNA:RNA)
RNA: GGGAGACCGGAAUUCAGAUUGUCCCUGCCCAUUAAAUCCCGUCGUAGCCACCA
DNA 1: CAATCTGAATTCCGGTCTCCC
DNA 2: TGGTGGCTACGACGGGATT
B6: CUGUAAC (DNA:RNA)
RNA: B5 RNA with C28U, C29A, C30A, A31C
DNA 1: CAATCTGAATTCCGGTCTCCC
DNA 2: TGGTGGCTACGACGGGATT
B7: GCCGCAC (DNA:RNA)
RNA: B1 RNA with U25G, A29C, U31C
DNA 1: CAATCTGAATTCCGGTCTCCC
DNA 2: TGGTGGCTACGACGGGATT
B8: CGUGUAU (DNA:RNA)
RNA: B1 RNA with U25C, C26G, C27U, A29U
DNA 1: CAATCTGAATTCCGGTCTCCC
DNA 2: TGGTGGCTACGACGGGATT
B9: UUUGCCC (DNA:RNA)
RNA: B5 RNA with C25U, G27U, C28G, A31C
DNA 1: CAATCTGAATTCCGGTCTCCC
DNA 2: TGGTGGCTACGACGGGATT

The binders below were run against T1, RBFOX1 RRM RbFoxmut (Fox-RRM*) (Homo sapiens, UniProt Q9NWB1 109-208, R118D;E147R;N151S;E152T) (assay: EMSA; HiTS-Eq, 1 nM pool, 10 min; buffer printed only for the single-RNA assays: 10 mM Tris pH 7.5, 150 mM NaCl, 3.4 mM EDTA, 0.001% NP-40, 30 C). Conditions: tags: His6 N-terminal (pET28a); label: 5' 32P.
T1 sequence: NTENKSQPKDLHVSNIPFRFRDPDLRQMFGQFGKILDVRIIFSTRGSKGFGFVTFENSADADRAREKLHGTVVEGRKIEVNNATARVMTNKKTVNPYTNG
How it was run: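 Relative association constants, normalised to the cognate motif, were derived by comparing read counts of each RNA species with those of the control reaction. The RNA sequenced was the free fraction, separated by 8% native PAGE after a 10 min equilibration in 50 µL of 1 nM 5′-radiolabelled RNA (7 randomized nucleotides) with increasing concentrations of purified wild-type or mutant RbFox RRM.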
With B1 the binding signal was 0.0661 KA relative to UGCAUGU. For B2, the binding signal was 0.21 KA relative to UGCAUGU. For B3, the binding signal was 0.0811 KA relative to UGCAUGU. In the case of B4, the binding signal is reported as 0.0873 KA relative to UGCAUGU. B5 was tested, and the binding signal was 0.0869 KA relative to UGCAUGU. With B6 the binding signal was 0.099 KA relative to UGCAUGU. In the case of B7, the binding signal is reported as 0.0799 KA relative to UGCAUGU. B8 was tested, and the binding signal was 0.211 KA relative to UGCAUGU. B9 was tested, and the binding signal was 0.0706 KA relative to UGCAUGU.
